Patent US11041000B2, “Peptide inhibitors of interleukin-23 receptor and their use to treat inflammatory diseases” (priority 2019, dated 2021)
Not every detail of the peptide structures is certain; ends, links or a residue may be inferred. Bridge positions count the residues as written; N and C are the ends. Square brackets hold non-standard residues; d marks the D form. Peptide text beside a SMILES is read from it. Trp(7-Me) = Cc1cccc2c(C[C@H](N)C(=O)O)c[nH]c12; 2Nal = N[C@@H](Cc1ccc2ccccc2c1)C(=O)O; AEF = NCCOc1ccc(C[C@H](N)C(=O)O)cc1; Cit = NC(=O)NCCC[C@H](N)C(=O)O; αMeL = CC(C)C[C@](C)(N)C(=O)O; Pen = CC(C)(S)[C@H](N)C(=O)O; αMeK = C[C@](N)(CCCCN)C(=O)O; Aib = CC(C)(N)C(=O)O; βAla = NCCC(=O)O

Legend:
[1] = biological target: IL-23R-expressing DB cells (Homo sapiens, UniProt Q5VWK5); experiment: DB cells IL23R pSTAT3 cell assay (pStat3HTRF); format: cell-based; settings: DB cells stimulated with IL-23 0.5 nM, 30 minutes, phospho-STAT3 in cell lysates; read-out: pStat3 HTRF
[2] = system: Natural killer (NK) cells; experiment: NK cell based assay (IL-23-induced IFNγ); settings: primary human NK cells, IL-23 plus IL-18 10 ng/mL, IFNγ in supernatant after 20 to 24 hours
Description: Natural killer (NK) cells, purified from human peripheral blood of healthy donors by negative selection (Miltenyi Biotech, Cat #130-092-657), were cultured in complete media (RPMI 1640 containing 10% FBS, L-glutamine and penicillin-streptomycin) in the presence of IL-2 (RnD, Cat #202-IL-010/CF) at 25 ng/mL. After 7 days, cells were centrifuged, and resuspended in complete media at 1E6 cells/mL. […] After 20 to 24 hours, IFNγ in the supernatant was quantified using Quantikine ELISA (RnD, Cat #DIF50).

Sequence of IL-23R-expressing DB cells (Q5VWK5 24-629 limits assumed): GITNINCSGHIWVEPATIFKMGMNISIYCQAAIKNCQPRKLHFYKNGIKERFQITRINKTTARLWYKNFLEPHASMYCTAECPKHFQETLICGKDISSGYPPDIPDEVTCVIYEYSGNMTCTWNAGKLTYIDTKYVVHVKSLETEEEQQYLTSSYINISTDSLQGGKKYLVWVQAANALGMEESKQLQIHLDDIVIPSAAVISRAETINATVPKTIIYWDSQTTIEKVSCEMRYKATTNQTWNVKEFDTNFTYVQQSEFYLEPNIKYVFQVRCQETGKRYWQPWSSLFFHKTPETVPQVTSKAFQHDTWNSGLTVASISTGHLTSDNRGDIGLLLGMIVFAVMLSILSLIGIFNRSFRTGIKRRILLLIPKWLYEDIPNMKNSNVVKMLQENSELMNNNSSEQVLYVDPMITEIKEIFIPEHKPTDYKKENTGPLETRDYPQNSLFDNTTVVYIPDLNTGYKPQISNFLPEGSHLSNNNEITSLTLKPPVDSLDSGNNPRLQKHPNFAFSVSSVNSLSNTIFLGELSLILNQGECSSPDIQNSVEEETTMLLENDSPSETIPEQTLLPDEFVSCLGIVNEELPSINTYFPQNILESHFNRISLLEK

| SMILES | IC50 [1] | IC50 [2] |
| --- | --- | --- |
| CCCCC(=O)NCCCC[C@H](NC(=O)[C@](C)(CCCCN)NC(=O)[C@H](Cc1ccc2ccccc2c1)NC(=O)[C@H](Cc1ccc(OCCN)cc1)NC(=O)[C@H]1NC(=O)[C@H](CCCCNC(C)=O)NC(=O)[C@H](Cc2c[nH]c3c(C)cccc23)NC(=O)[C@H]([C@@H](C)O)NC(=O)[C@H](CC(N)=O)NC(=O)[C@@H](NC(C)=O)C(C)(C)SSC1(C)C)C(=O)N[C@@H](CC(N)=O)C(=O)N[C@H](CC(C)C)C(N)=O [compound 361] | 0.596 nM | 1.47 nM |
| CC(=O)NCCCC[C@H](NC(=O)[C@](C)(CCCCN)NC(=O)[C@H](Cc1ccc2ccccc2c1)NC(=O)[C@H](Cc1ccc(OCCN)cc1)NC(=O)[C@H]1NC(=O)[C@H](CCCNC(N)=O)NC(=O)[C@H](Cc2c[nH]c3c(C)cccc23)NC(=O)[C@H]([C@@H](C)O)NC(=O)[C@H](CC(N)=O)NC(=O)[C@@H](NC(C)=O)C(C)(C)SSC1(C)C)C(=O)N[C@@H](CC(N)=O)C(=O)NC(C)(C)C(N)=O [compound 264] (Ac-[Pen]NT[Trp(7-Me)][Cit][Pen][AEF][2Nal][αMeK]K(Ac)N[Aib]-NH2; disulfide 1-6) | 0.596 nM | 5.15 nM |
| CC(=O)N[C@@H]1C(=O)N[C@@H](CC(N)=O)C(=O)N[C@@H]([C@@H](C)O)C(=O)N[C@@H](Cc2c[nH]c3c(C)cccc23)C(=O)N[C@@H](CCC(N)=O)C(=O)N[C@H](C(=O)N[C@@H](Cc2ccc(OCCN)cc2)C(=O)N[C@@H](Cc2ccc3ccccc3c2)C(=O)N[C@@](C)(CCCCN)C(=O)NC(C)(C)C(=O)N[C@@H](CC(N)=O)C(=O)NCCC(N)=O)C(C)(C)SSC1(C)C [compound 236] | 5.21 nM | 5.82 nM |
| CC(=O)NCCCC[C@@H]1NC(=O)[C@H](Cc2c[nH]c3c(C)cccc23)NC(=O)[C@H]([C@@H](C)O)NC(=O)[C@H](CC(N)=O)NC(=O)[C@@H](NC(C)=O)C(C)(C)SSC(C)(C)[C@@H](C(=O)N[C@@H](Cc2ccc(OCCN)cc2)C(=O)N[C@@H](Cc2ccc3ccccc3c2)C(=O)N[C@@](C)(CC(C)C)C(=O)N[C@@H](CCCCNC(C)=O)C(=O)N[C@@H](CC(N)=O)C(=O)N[C@H](CC(N)=O)C(N)=O)NC1=O [compound 354] | 0.283 nM | 1.62 nM |
| CC(=O)NCCCC[C@H](NC(=O)[C@](C)(CCCCN)NC(=O)[C@H](Cc1ccc2ccccc2c1)NC(=O)[C@H](Cc1ccc(OCCN)cc1)NC(=O)[C@H]1NC(=O)[C@](C)(CC(C)C)NC(=O)[C@H](Cc2c[nH]c3c(C)cccc23)NC(=O)[C@H]([C@@H](C)O)NC(=O)[C@H](CC(N)=O)NC(=O)[C@@H](NC(C)=O)C(C)(C)SSC1(C)C)C(=O)N[C@@H](CC(N)=O)C(=O)NCCC(N)=O [compound 235] (Ac-[Pen]NT[Trp(7-Me)][αMeL][Pen][AEF][2Nal][αMeK]K(Ac)N[βAla]-NH2; disulfide 1-6) | 3.21 nM | 10.2 nM |
| CC(=O)NCCCC[C@H](NC(=O)[C@](C)(CCCCN)NC(=O)[C@H](Cc1ccc2ccccc2c1)NC(=O)[C@H](Cc1ccc(OCCN)cc1)NC(=O)[C@H]1NC(=O)[C@H](CCC(N)=O)NC(=O)[C@H](Cc2cn(C)c3ccccc23)NC(=O)[C@H]([C@@H](C)O)NC(=O)[C@H](CC(N)=O)NC(=O)[C@@H](NC(C)=O)C(C)(C)SSC1(C)C)C(=O)N[C@@H](CC(N)=O)C(=O)NCCC(N)=O [compound 232] | 4.5 nM | 9 nM |
| CC(=O)NCCCC[C@H](NC(=O)[C@](C)(CC(C)C)NC(=O)[C@H](Cc1ccc2ccccc2c1)NC(=O)[C@H](Cc1ccc(OCCN)cc1)NC(=O)[C@H]1NC(=O)[C@H](CCC(N)=O)NC(=O)[C@H](Cc2c[nH]c3c(C)cccc23)NC(=O)[C@H]([C@@H](C)O)NC(=O)[C@H](CC(N)=O)NC(=O)[C@@H](NC(C)=O)C(C)(C)SSC1(C)C)C(=O)N[C@@H](CCCNC(N)=O)C(=O)NCCC(N)=O [compound 206] | 12 nM | 21.4 nM |
